# Assay results published in PubChem BioAssay AID463173 (ICCB-Longwood Screening Facility, Harvard Medical School, 2010).
# Hit rate of the full screen: of about 52,000 compounds, about 1,700 (3.3%) were called active. Cut-off read from the data, not from the text of the source: active = survival mostly below about 52% (no sharp cut-off); inactive = mostly above about 56%. This is one part of the list.
# System: Wild type
# Assay: growth inhibition of S. aureus wild type versus tarO mutant, primary screen, teichoic acid synthesis inhibitors, RN4220, OD600 (AID 463173)
# Conditions: S. aureus RN4220 wild type/DeltatarO growth, OD600, 18 h, stronger effect = lower value, screened at 18.75 µg/mL (by protocol)
row,Compound,survival
1,Fc1ccc(-n2cc(-c3ccccc3)c3c(NC4CCCCC4)ncnc32)cc1,inactive: 94%
2,CCOC(=O)c1cccc(NC(=O)c2cc3c(=O)n(Cc4ccccc4)ccc3nc2C)c1,inactive: 102%
3,O=C(NCCN1CCCCC1)c1ccc(/C=N/O)nc1,inactive: 98%
4,COc1cccc(-n2c(=O)c3c(C)c(C(=O)N(C)C)sc3n(Cc3ccc(F)cc3Cl)c2=O)c1,inactive: 83%
5,CCOc1cc(C2C(C(=O)OC)=C(C)NC3=C2C(=O)c2ccccc23)cc(Cl)c1O (centres undefined),inactive: 71%
6,Cc1ccc(-n2ncc3c(NCCCN4CCOCC4)ncnc32)cc1,inactive: 78%
7,O=C(CCC1N=C2c3ccccc3N=C(SCc3ccccc3F)N2C1=O)NC1CCCCC1 (centres undefined),inactive: 78%
8,CCn1c2ccccc2c2nnc(N3CCN(c4cc(C)ccc4C)CC3)nc21,inactive: 87%
9,Fc1ccc(-c2nc(Nc3cccc(Cl)c3)nc3c2COc2ccccc2-3)cc1,inactive: 80%
10,COc1ccc(NC(=O)CN(Cc2ccccc2)S(=O)(=O)c2ccc(C)cc2)cc1Cl,inactive: 123%
11,COc1ccc(N2CCN(S(=O)(=O)c3ccc4c(c3)CC(C)N4C(C)=O)CC2)cc1 (centres undefined),inactive: 55%
12,CCOc1ccccc1NC(=O)c1cc2c(Cl)nc3ccccc3c2s1,inactive: 70%
13,COc1ccc(NC(=O)C2Cc3ccccc3N2C(=O)c2ccccc2)c(OC)c1 (centres undefined),inactive: 74%
14,CCCCCCSc1n[nH]c(=O)[nH]c1=O,inactive: 107%
15,CCN(CCCNC(=O)c1c(C)oc2ncn(CC(C)C)c(=O)c12)Cc1ccccc1,inactive: 59%
16,Cc1ccc(Cl)cc1NC(=O)c1oc2c(c1C)-c1[nH]ncc1CC2,inactive: 114%
17,COc1ccc(N(Cc2cccs2)C(=O)COc2cccc(Cl)c2)cc1,inactive: 56%
18,CC1=C(C(=O)OC2CCCCCC2)C(c2c(F)cccc2Cl)CC(=O)N1 (centres undefined),inactive: 56%
19,CCOC(=O)c1c(Nc2ccc(C)cc2)nnc(-c2ccccc2)c1-c1ccccc1,active: 2%
20,Cn1c(=O)n(-c2ccc(F)c(Cl)c2)c(=O)c2sc3ccccc3c21,inactive: 96%
21,CCC1CCCCN1C(=O)c1ccc2c(c1)N(Cc1cccc(Cl)c1)C(=O)c1ccccc1S2(=O)=O (centres undefined),inactive: 73%
22,COc1ccc(NCc2cc3cc4c(cc3n(CC(=O)Nc3ccc(F)cc3F)c2=O)OCO4)cc1,inactive: 60%
23,COc1ccc2c(C)c(CCC(=O)NCCc3ccccc3OC)c(=O)oc2c1,inactive: 79%

row,Compound,survival
1,COC(=O)CCSc1nc2sc3c(c2c(=O)n1Cc1ccccc1)CCC(C(C)(C)C)C3 (centres undefined),inactive: 66%
2,O=C(CN(Cc1ccc2c(c1)OCO2)C(=O)CSc1nc2ccccc2o1)NC1CCCCC1,inactive: 105%
3,Cc1cc(F)ccc1NC(=O)CCS(=O)(=O)c1ccc2c(c1)NC(=O)CO2,inactive: 86%
4,O=C(Nc1ccc(Cl)cc1)C1CCCN(S(=O)(=O)c2ccc3[nH]c(=O)ccc3c2)C1 (centres undefined),inactive: 106%
5,CCOc1cccc2cc(-c3nc(-c4ccccc4C)no3)c(=O)oc12,inactive: 84%
6,Cc1ccc(Oc2c(C(F)(F)F)oc3c(CN4CCCCC4)c(O)ccc3c2=O)cc1,inactive: 73%
7,CCOC(=O)c1ccccc1NC(=O)CSc1cn(CC(=O)N2CCCCC2)c2ccccc12,inactive: 94%
8,Cc1nc2c(-c3ccccc3)c(C)nn2c(C)c1CCC(=O)NC(C)c1ccccc1 (centres undefined),inactive: 75%
9,COc1cccc(CNC(=O)C2CCCN(S(=O)(=O)c3ccc4c(ccn4C)c3)C2)c1 (centres undefined),inactive: 130%
10,CCc1ccccc1NS(=O)(=O)c1ccc2[nH]cc(C(=O)N3CCCCC3)c(=O)c2c1,inactive: 127%
11,COc1cc(CN(C(=O)Nc2ccccc2)c2ccccn2)cc(OC)c1OC,inactive: 86%
12,CCOC(=O)c1cccc(NC(=O)c2oc3c(c2C)-c2[nH]ncc2CC3)c1,inactive: 74%
13,CCCN(C(=O)c1cc2c(s1)-c1ccccc1OC2)c1ccccc1F,active: -2%
14,CCC(C(=O)Nc1ccc(C(=O)OC)cc1)n1c(=O)c(-c2ccccc2NC(C)=O)nc2ccccc21 (centres undefined),inactive: 103%
15,COc1ccc(NC(=O)CC2C(=O)N(c3ccc(F)cc3)C(=O)N2Cc2cccnc2)cc1 (centres undefined),inactive: 124%
16,CC(C)CCNC(=O)c1cccc(Nc2nc3ccccc3n3nnnc23)c1,inactive: 79%
17,Cc1ccc(NC(=O)c2cc(S(=O)(=O)NCCC3=CCCCC3)ccc2F)cc1F,inactive: 82%
18,COc1ccc(Cl)cc1NC(=O)c1ccc2nc(Cc3ccccc3)oc2c1,inactive: 78%
19,O=C(O)c1cccc(N=C2NC(=O)C(CO)(CO)S2)c1,inactive: 117%
20,CCCC(=O)Nc1cc(C)c(O)c(-c2nc3ncccc3o2)c1,inactive: 75%
21,Cc1ccc(-n2nc(C(=O)N3CCN(c4cc(Cl)ccc4C)CC3)c(=O)n(C)c2=O)cc1,inactive: 136%
22,OCC1OC(n2nnc3ccccc32)C(O)C(O)C1O (centres undefined),inactive: 120%
23,Cc1cc(NC(=O)c2ccc(Br)o2)cc(-c2nc3ccccc3o2)c1O,inactive: 90%

row,Compound,survival
1,CCCCNC(=O)C1CCCN(Cc2nc(-c3ccc(Cl)cc3)oc2C)C1 (centres undefined),inactive: 87%
2,CCc1ccc(C(=O)c2cn(CC(=O)Nc3ccc(F)c(F)c3)c3cc(OC)c(OC)cc3c2=O)cc1,inactive: 111%
3,COc1ccc(NC(=O)C(NS(=O)(=O)c2ccc3c(c2)CCCC(=O)N3)C(C)C)c(OC)c1 (centres undefined),inactive: 110%
4,Cc1cc(C)c(NC(=O)CSc2ccnc(=O)[nH]2)c(C)c1,inactive: 74%
5,O=C(NCCCN1CCCC1)c1ccccc1Cl,inactive: 122%
6,CC1(C)CC(=O)C(C=NC(C)(C)C)=C(O)C1,inactive: 112%
7,COc1cc(NC(=O)CCn2c(-c3ccccc3)cc(C(C)=O)c2C)cc(OC)c1,inactive: 77%
8,Cc1c(Cl)cccc1NC(=O)CSc1ncnc2c1sc1ccccc12,inactive: 73%
9,Cc1cccc(CNC(=O)c2oc3c(c2C)-c2nn(Cc4ccccc4Cl)cc2CC3)c1,inactive: 87%
10,CC1(NS(=O)(=O)c2ccccc2)CCS(=O)(=O)C1 (centres undefined),inactive: 100%
11,NS(=O)(=O)c1ccc(CCNC(=O)C2COc3ccccc3C2)cc1 (centres undefined),inactive: 73%
12,CCc1ccc(C2CC(=O)c3c([nH]c(C(=O)OCC4CCCCC4)c3C)C2)cc1 (centres undefined),inactive: 92%
13,Cc1cc(OCC(=O)Nc2ccc(-c3nc4cc(Cl)ccc4o3)cc2)cc(C)c1Cl,inactive: 93%
14,Cc1ccc(-n2ncc3c(N4CCCCCC4)ncnc32)cc1,inactive: 73%
15,Cc1ccc(Cn2c(=O)c3cccnc3n(CC(=O)Nc3cccc(C(F)(F)F)c3)c2=O)cc1,inactive: 84%
16,O=C(COc1ccccc1)NCc1ccc2c(c1)CCN2C(=O)c1ccc(F)cc1,inactive: 71%
17,CCc1cccc(NC(=O)Nc2ccc3c(c2)N(C)C(=O)c2ccccc2S3)c1,inactive: 46%
18,c1ccc(-n2ncc3c(NC4CCCC4)ncnc32)cc1,inactive: 121%
19,Cc1oc(C(C)(C)C)cc1C(=O)NC(Cc1ccccc1)C(=O)O (centres undefined),inactive: 98%
20,CCOc1ccc(NC(=O)C(=O)NCCc2csc(-c3ccc(F)cc3)n2)cc1,inactive: 105%
21,CCC(=O)N1CCc2cc(Br)cc(S(=O)(=O)CCC(=O)NCCc3ccc(OC)c(OC)c3)c21,inactive: 130%
22,CCOc1ccc(/C=C/c2nc(C#N)c(N3CCN(c4ccc(OC)cc4)CC3)o2)cc1,inactive: 84%
23,Cn1cc(S(=O)(=O)N2CCCCCC2)cc1C(=O)N1CCN(c2ccc(F)cc2)CC1,inactive: 71%

row,Compound,survival
1,COc1ccc(NS(=O)(=O)c2cc3[nH]c(=O)c(=O)[nH]c3cc2C)cc1Cl,inactive: 110%
2,CC(C)OCCCn1c(SCc2ccccc2C#N)nc2c(sc3ccccc32)c1=O,inactive: 76%
3,Cc1ccc(NC(=O)Cc2c(C(=O)O)c(C)cn2C)cc1Cl,inactive: 87%
4,O=C(CN1C2=NCCN2c2ccccc21)c1ccco1,inactive: 103%
5,COc1cc(OC)c(NC(=O)CN2C(=O)CCn3nc(-c4cccn4C)cc32)cc1Cl,inactive: 57%
6,CN(C(=O)C1CCCN(c2ncnc3c2nc2n3CCCCC2)C1)c1ccccc1F (centres undefined),inactive: 81%
7,NC(=O)CSc1nnc(COc2cccc3ccccc23)o1,inactive: 112%
8,CCN(CC)CC(C)CNC(=O)CN1C(=O)CSc2ccc(S(=O)(=O)N3CCOCC3)cc21 (centres undefined),inactive: 131%
9,Cc1ccc(CNC(=O)c2cc3sccc3n2Cc2ccc(Cl)cc2)cc1,inactive: 103%
10,CC(CCc1ccccc1)NC(=O)Cn1ncc2c3ccccc3n(Cc3ccc(F)cc3)c2c1=O (centres undefined),inactive: 86%
11,CCCn1c(=O)c2sccc2n2c(CCCC(=O)NCCc3ccc(Cl)cc3)nnc12,inactive: 95%
12,CCOc1ccccc1NC(=O)NC1(C(=O)NCc2ccco2)CCCCC1,inactive: 96%
13,CC(C)c1ccc(S(=O)(=O)c2nnn3c2nc(NCCc2ccccc2)c2sccc23)cc1,inactive: 62%
14,Cc1nn(C(=O)c2cccc([N+](=O)[O-])c2C)c(C)c1S(=O)(=O)N1CCOCC1,inactive: 64%
15,COc1cc(-c2ccno2)ccc1S(=O)(=O)N1CCN(c2cc(C)ccc2C)CC1,inactive: 63%
16,COCC(=O)Oc1c(Sc2ccc(C)cc2)c(C)nn1C(C)(C)C,inactive: 69%
17,Cc1ccc(NC(=O)CC(C)S(=O)(=O)c2ccc3c(c2)NC(=O)CO3)c(C)c1 (centres undefined),inactive: 77%
18,COc1ccc2nc(Cl)c(CN(Cc3ccc(F)cc3)C(=O)c3ccco3)cc2c1,inactive: 107%
19,Cc1cc(C)cc(Oc2nc3c(C)cccn3c(=O)c2/C=C(\C#N)c2nc3ccccc3[nH]2)c1,inactive: 69%
20,COc1cccc(N2CC(NC(=O)C(c3ccccc3)c3ccccc3)CC2=O)c1 (centres undefined),inactive: 65%
